{"source": "PubChem BioAssay AID1345082", "about": "(National Center for Advancing Translational Sciences (NCATS), 2018)", "note": "About 4,000 (4.3%) of roughly 94,000 compounds were called active. This list was built around the results that the source calls inconclusive (neither active nor inactive); the mix of calls is not that of the screen. Calls follow the shape of the dose curve; as a rule, active = well fitted inhibition curve with a large enough effect; inconclusive = small, poorly fitted or top-dose-only effect; inactive = no such curve, though single readings can be large or run the other way. Potencies beside an inconclusive call are fits to weak or partial responses and may not hold up. % is scaled to controls: 0 for no effect and ±100 for the full control effect; potency is read from the fitted curve at half-maximal effect; tags tell the direction and shape of the fitted curve.", "data": [{"experiment": "Cytotoxic Profiling in NIH 3T3 Cell Line of Diverse Libraries Using Quantitative High-Throughput Screening; also: nearly all actives have a fitted effect of over 55% in size", "settings": "NIH 3T3 viability, CellTiter-Glo ATP luminescence, 48-72 h; activity change, negative = cytotoxicity: at 96.7 µM (top of the series) unless noted; series mostly up to 96.7 µM", "procedure,_shortened": "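NIH 3T3 cells at 400 cells/well received 23 nL of compound by pintool and were incubated 48 or 72 h at 37 °C. Viability was read as ATP-coupled CellTiter-Glo luminescence.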", "values": [{"compound": "Cc1n[nH]c(C)c1CN1C[C@@H](CO)[C@H](NC(=O)c2ccccc2)C1", "activity change, negative = cytotoxicity": "inactive: -22.2%"}, {"compound": "Cc1ccc(-c2cnc([C@@H]3COCCN3Cc3cnc[nH]3)[nH]2)cc1", "Potency": "inconclusive: 89.1 µM [inhibitor, partial curve, poor fit]"}, {"compound": "COCCNC(=O)c1ccc(OC2CCN(Cc3ccc(OC)cc3F)CC2)c(Cl)c1", "Potency": "inconclusive: 79.4 µM [inhibitor, partial curve, poor fit]"}, {"compound": "CCc1ccc(CNC(=O)c2nnn3cc(C)[nH]c(=O)c23)cc1", "Potency": "active: 35.5 µM"}, {"compound": "COc1ccc(C(=O)NC2CCN(c3ccc4nnc(C5CC5)n4n3)CC2)cc1", "Potency": "inconclusive: 28.2 µM [inhibitor, full curve, poor fit]"}, {"compound": "O=C1CC(c2ccccc2)N(C(=O)Nc2ccccc2)CCCCCN1", "note": "(centres undefined)", "activity change, negative = cytotoxicity": "inactive: -18.6%"}, {"compound": "O=C1Nc2ccccc2C12CCN(Cc1cccc3ccccc13)C2", "note": "(centres undefined)", "Potency": "active: 79.4 µM"}, {"compound": "COCCNC(=O)c1ccc(-c2ncc3cnc(-c4cccc(F)c4)cn23)cc1", "Potency": "inconclusive: 89.1 µM [inhibitor, partial curve]"}, {"compound": "C=CCO[C@@H]1CCN2C(=O)c3cc(-c4cccc(C(F)(F)F)c4)ccc3NC(=O)[C@H]12", "Potency": "inconclusive: 79.4 µM [inhibitor, partial curve, poor fit]"}, {"compound": "CC(C)=CCn1c(-c2ccc(F)cc2)cn2cc(C(=O)N3CC[C@H](O)C3)nc2c1=O", "Potency": "inconclusive: 79.4 µM [inhibitor, partial curve]"}, {"compound": "CNc1cc(C2CC(NS(=O)(=O)c3cc(C)sc3C)C2)nc(N)n1", "note": "(centres undefined)", "Potency": "inconclusive: 50.1 µM [inhibitor, partial curve, poor fit]"}, {"compound": "CN1Cc2nc(Nc3ccc(C(F)(F)F)cc3)ccc2OCC1=O", "Potency": "inconclusive: 79.4 µM [inhibitor, partial curve]"}, {"compound": "COc1ccc(-c2cc3nc4c(c(=O)n3[nH]2)CCN(C(=O)c2ccccc2C)C4)cc1", "Potency": "inconclusive: 70.8 µM [inhibitor, single point]"}, {"compound": "O=C(Nc1ccc(F)cc1)C1CCc2nnc(C3CCN([S+](=O)([O-])c4ccccc4Cl)CC3)n21", "note": "(centres undefined)", "activity change, negative = cytotoxicity": "inactive: -20.1% [at 138 µM]"}, {"compound": "O=S(=O)(c1cccnc1)N1CC[C@@H]2COCCN(Cc3cccnc3)[C@@H]2C1", "activity change, negative = cytotoxicity": "inactive: 4.56%"}, {"compound": "CCOc1ccc2c(n1)CCN(C(=O)Cc1cccc(C)c1)C2", "activity change, negative = cytotoxicity": "inactive: -26.2%"}, {"compound": "COc1ccc(C(=O)NCCn2ccn3nc(-c4cccc(OC)c4)cc3c2=O)cc1", "Potency": "inconclusive: 20 µM [inhibitor, full curve]"}, {"compound": "FC(F)(F)c1ccc(CN2CCCC3(CC(c4ccccc4)=NO3)C2)cc1", "note": "(centres undefined)", "Potency": "inconclusive: 50.1 µM [inhibitor, partial curve, poor fit]"}, {"compound": "COc1cncc(CN2CCc3ncc(C(=O)Nc4ccccc4)n3CC2)c1", "Potency": "inconclusive: 79.4 µM [inhibitor, partial curve]"}, {"compound": "COc1ccc(C2Cn3cnc(C(=O)N4CCC(C(=O)NC5CCCC5)CC4)c3CO2)cc1", "note": "(centres undefined)", "activity change, negative = cytotoxicity": "inactive: -13.7%"}, {"compound": "Cc1cccc(N(C)C(=O)Cn2cccc2-c2nc(-c3ccccc3)no2)c1", "Potency": "inconclusive: 31.6 µM [inhibitor, full curve]"}, {"compound": "O=C(CC1=CCCCC1)N1CCC(C2CCNC2)CC1", "note": "(centres undefined)", "Potency": "inconclusive: 50.1 µM [inhibitor, partial curve, poor fit]"}, {"compound": "Cc1ccccc1-c1cnc2[nH]cc(CC(=O)Nc3cccnc3)c2c1", "Potency": "inconclusive: 17.8 µM [inhibitor, full curve, poor fit]"}, {"compound": "O=C(c1nnc(CN2CCOCC2)n1-c1ccccc1)N1CCC[C@@H]1C(c1ccccc1)c1ccccc1", "Potency": "inconclusive: 10 µM [inhibitor, full curve, poor fit]"}, {"compound": "Cc1cc2c(N3CCC(NCc4noc(C5CCC5)n4)CC3)ncnc2s1", "Potency": "inconclusive: 44.7 µM [inhibitor, partial curve, poor fit]"}, {"compound": "COc1ccc(-c2ccc(NC(=O)c3ccccc3C)cc2)nn1", "Potency": "inconclusive: 50.1 µM [inhibitor, partial curve, poor fit]"}, {"compound": "O=C(Nc1ccc(Cl)cc1)N1CCN(c2ccc3nnc(C4CC4)n3n2)CC1", "Potency": "active: 22.4 µM"}, {"compound": "COCCC(=O)N1CCNc2cnc(Nc3cccc(C(F)(F)F)c3)nc2C1", "Potency": "inconclusive: 56.2 µM [inhibitor, partial curve, poor fit]"}, {"compound": "CCn1nccc1C(=O)N1CCC(Cc2nc(-c3ccccc3)n[nH]2)C1", "note": "(centres undefined)", "Potency": "inconclusive: 70.8 µM [inhibitor, single point]"}, {"compound": "CCN(C(=O)Cn1cccc1-c1nc(-c2ccccc2)no1)c1cccc(C)c1", "Potency": "inconclusive: 50.1 µM [inhibitor, partial curve, poor fit]"}, {"compound": "CN1Cc2ccc(NCc3ccccc3)nc2C(C)(C(=O)NCc2cccs2)C1", "note": "(centres undefined)", "Potency": "active: 79.4 µM"}, {"compound": "Cc1nn(-c2ccc(F)cc2)c(Oc2ccccc2F)c1CCC(=O)NCC(C)C", "Potency": "inconclusive: 50.1 µM [inhibitor, partial curve, poor fit]"}, {"compound": "CCCNC(=O)CC(c1ccc(F)cc1)c1c[nH]c2ccccc12", "note": "(centres undefined)", "Potency": "inconclusive: 44.7 µM [inhibitor, partial curve, poor fit]"}, {"compound": "CC1=C(C(=O)OC(C)C)C(c2ccc(C)cc2)CC(=O)N1Cc1cccc(C#N)c1", "note": "(centres undefined)", "Potency": "inconclusive: 50.1 µM [inhibitor, partial curve, poor fit]"}, {"compound": "Cc1oc(C(O)c2ccccc2F)nc1C(=O)Nc1ccccc1", "note": "(centres undefined)", "Potency": "inconclusive: 79.4 µM [inhibitor, partial curve, poor fit]"}, {"compound": "O=C(c1ccc(C(F)(F)F)cc1)N1CCN2C(=O)N(Cc3ccc(F)cc3)C[C@H]2C1", "Potency": "inconclusive: 70.8 µM [inhibitor, partial curve, poor fit]"}, {"compound": "O=C(CCc1nnn2c1CN(C(=O)NCc1ccccc1)CC2)N1CCCC1", "activity change, negative = cytotoxicity": "inactive: -3.69%"}, {"compound": "Cn1ncc2c(C(=O)N3CCCC3)cc(-c3ccc(Cl)cc3Cl)nc21", "Potency": "inconclusive: 50.1 µM [inhibitor, partial curve, poor fit]"}, {"compound": "CC1Oc2ccc(NC(=O)c3ccccc3Cl)cc2CN(Cc2ccc3c(c2)OCO3)C1=O", "note": "(centres undefined)", "Potency": "inconclusive: 39.8 µM [inhibitor, partial curve, poor fit]"}]}]}
